In US20240216557A1, “RADIOLIGAND BINDING TO ANTI-DLL3 ANTIBODIES FOR PRETARGETED PET IMAGING AND THERAPEUTIC USES THEREOF” (Memorial Sloan-Kettering Cancer Center, priority 2021, published 2024):
Residue numbers refer to the chain shown, from its start.

B1: B16-v1: anti-DLL3 antibody, VH SEQ ID NO: 108, VL SEQ ID NO: 109 (antibody, V domains shown)
VH: QVQLVQSGAEVKKPGASVKVSCKASGYTFTSYYMHWVRQAPGQGLEWMGIIDPSGGSTSYAQKFQGRVTMTRDTSTNTVYMDLSSLRSEDTAVYYCARQGRYVGSYLDYWGQGTLVTVSS
VL: [no letters for about 100 residues]QGTKLEIK
B2: D8: anti-DLL3 antibody, VH SEQ ID NO: 153, VL SEQ ID NO: 154 (antibody, V domains shown)
VH: B1 VH with S31T, D52N, N77S, D82E, R101H, V103I, S105N
VL: [no letters for about 100 residues]QGTKLEIK
B3: G3: anti-DLL3 antibody, VH SEQ ID NO: 52, VL SEQ ID NO: 53 (antibody, V domains shown)
VH: QVQLQESGPGLVKPSETLFLTCTVSGGSISSYYWTWIRQPAGKGLEWIGRIYTSGSTNYNPSLKSRVTMSVDTSKNQFSLKLSSVTAADTAVYYCAREDWESWTFDIWGQGTMVTVSS
VL: [no letters for about 100 residues]LSFGGGTKVEIK
B4: J23: anti-DLL3 antibody, VH SEQ ID NO: 83, VL SEQ ID NO: 84 (antibody, V domains shown)
VH: B1 VH with D52N, P53Y, T58K, N77S, D82E, A92G, V103S
VL: [no letters for about 100 residues]QGTKLEIK
B5: L12: anti-DLL3 antibody, VH SEQ ID NO: 131, VL SEQ ID NO: 132 (antibody, V domains shown)
VH: QVQLVQSGAEVKKPGASVKVSCKASGYTFTSYYMHWVRQAPGQGLEWMGIINPSGGSRSYAQKFQGRVTMTRDTSTSTVYMELSSLRSEDTAVYYCARQLELLGNAFDIWGQGTMVTVSS
VL: [no letters for about 100 residues]
B6: C22: anti-DLL3 antibody, VH SEQ ID NO: 147, VL SEQ ID NO: 148 (antibody, V domains shown)
VH: B1 VH with D52N, N77S, D82E, Q99V, G100A, R101D, Y102I, S105A, Y106T, L107F
VL: [no letters for about 100 residues]YTFGQGTKLEIK

Target: T1, Histidine-tagged DLL3 antigen (DLL3-His) (Homo sapiens, UniProt Q9NYJ7)
T1 construct: corresponding to amino acids Ala27-Ala479 with a C-terminal 6×His tag; made in house; host or cells: HEK293T cells
T1 sequence (Q9NYJ7 27-479): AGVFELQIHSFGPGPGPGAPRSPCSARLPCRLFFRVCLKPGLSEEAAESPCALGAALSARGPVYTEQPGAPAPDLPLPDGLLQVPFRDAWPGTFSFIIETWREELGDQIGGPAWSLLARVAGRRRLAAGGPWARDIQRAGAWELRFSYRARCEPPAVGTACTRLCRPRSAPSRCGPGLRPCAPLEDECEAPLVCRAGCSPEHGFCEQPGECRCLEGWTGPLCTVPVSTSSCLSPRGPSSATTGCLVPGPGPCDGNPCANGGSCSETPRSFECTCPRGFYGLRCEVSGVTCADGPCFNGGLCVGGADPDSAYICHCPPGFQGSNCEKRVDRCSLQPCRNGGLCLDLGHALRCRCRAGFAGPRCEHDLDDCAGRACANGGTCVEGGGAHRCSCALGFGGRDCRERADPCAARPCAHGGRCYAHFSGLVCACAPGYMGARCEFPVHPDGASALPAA
Assay: Pairwise epitope binning on Carterra array SPR
Conditions: pairwise competition for binding to DLL3-His, antibodies immobilized on HC200M chip
Method: The panel of purified anti-DLL3 monoclonal antibodies and the reference monoclonal antibody were subjected to pairwise epitope binning on a Carterra® array surface plasmon resonance (SPR) assay platform (Carterra*Inc., Salt Lake City UT) where each monoclonal antibody was tested for the capture of Histidine-tagged DLL3 antigen (DLL3-His), and also for competing with every other antibody in the panel for the binding to DLL3-His. The antibodies were immobilized on a HC200M chip (ligand) through standard amine coupling techniques by the print array method. Then in each cycle antigen was injected across the entire array followed by a single antibody (analyte). At the end of each cycle the surface was regenerated to remove antigen and analyte before a new cycle started.

Row | Epitope Bin | Molecule
1 | 4 | B1
2 | 2 | B2
3 | 1 | B3
4 | 2 | B4
5 | 4 | B5
6 | 9 | B6
